According to the supplement of paper PMC11417369:
± gives the standard deviation of the averaged measurements. The list shows a part of the results.

system: PfAP2-LT AP2 domain (GST-tagged); test: gcPBM binding intensity (ln(normalized median fluorescence intensity)); higher = stronger DNA binding
Method in brief: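 Each value is the highest Masliner-normalised natural-log median intensity across replicate spots of either orientation of a probe. The probes were primer-extended double-stranded 36-bp intergenic genomic sequences on an Agilent 4 × 180k array, alongside negative controls, exposed for 1 h to GST-tagged P. falciparum DNA-binding domains expressed in E. coli. Bound protein was picked up with Alexa488 anti-GST antibody and scanned at 488 nm.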

Sequence | gcPBM binding intensity (ln)
AAAAAAAAAAAAAAAAGTACAAAAATTATATTAAGA [XGTACX_site4255] | 8.43 ± 0.64
ATATAAGATTACAAAAATTATGTGTAAATATTTAAT [XGTACX_negctrl_site448] | 8.71 ± 0.42
AAAAAAATTACATATCCATTTTAACATAATAAATAG [GTGCAC_negctrl_site618] | 8.33 ± 0.45
TTTTTGCAAAAAGAAATAATTTTATTTTAGTTCGGA [CACACA_negctrl_site1718] | 8.19 ± 0.45
ATCTATGGGTAGTATACACACTGTATATTTAGGAAT [CACACA_site5569] | 8.88 ± 0.49
ATTCTATTCTCCTTCACACACAAAAATATTTCATCA [CACACA_site2360] | 9.16 ± 0.52
TTACGAATAAAACAGTGTACATTGAATTTCTATGAG [XGTACX_site4771] | 8.66 ± 0.47
TCCATGCAGAAACACACACACAAAAAAAAATTCTTT [CACACA_site4099] | 9.56 ± 0.45
TCTTACAAAAAAAAAAAAAAATAAAATAAAATATAT [CACACA_negctrl_site1575] | 8.35 ± 0.47
AAGGAGATAATTTATTGTACATATAATAAATGAACA [XGTACX_site6252] | 8.72 ± 0.51
TTAATATTATGTTAAAGTACTTTATATATATATAAT [XGTACX_site2646] | 8.57 ± 0.3
ATCTTATATATACGTTGTACTACAGGATATGTCATA [XGTACX_site5734] | 8.95 ± 0.38
TGTATATTATAAGATAGTACATATATATAATATATA [XGTACX_site1297] | 8.57 ± 0.36
TTCATTTACCCTTATTAACACACAAAATATAATACG [CACACA_site8821] | 8.83 ± 0.34
ATAAATATCATATATATACACACGTAATACATAATA [CACACA_site4001] | 9.03 ± 0.35
AGTGAGAAATACATAATAATACATTATGTGCATATT [XGTACX_negctrl_site247] | 8.89 ± 0.49
TTACTTGTTTATTTTATTTTTTTTTTTTTTTTGTTA [TGCATGCA_negctrl_site266] | 8.45 ± 0.57
GTACACATATATATATATATATATATATATATATTA [CACACA_negctrl_site1580] | 9.82 ± 0.3
AAGAATATTTTTTTCTGTACATATAATTTATATACG [XGTACX_site5801] | 8.6 ± 0.59
ATATTAAGAATATATACACACATAAGTATTGTATAT [CACACA_site6110] | 8.88 ± 0.42
ATAAAATAAAATAAATGTACACGAAAAAAAATATTT [XGTACX_site3747] | 8.91 ± 0.49
TATTCGTGCAATAGTAGTACACTTATAAATTATTCT [XGTACX_site4899] | 8.76 ± 0.4
GTTGGTAGATTTATTTGTACATATGTATCATATTAT [XGTACX_site7135] | 9.07 ± 0.35
AAAAATTTATTTTGTTTTTTAAGATTTTTTTTTTTT [CACACA_negctrl_site1210] | 7.91 ± 0.56
